Results on 111 compounds are retold here after PubChem BioAssay AID488969 (Vanderbilt High Throughput Screening Facility, 2010).

Structures are written as SMILES. The full ranking holds about 110,000 compounds; the median of “z-score” is about -0.1, and the highest 2% start at about 2. Some of the results follow.

The test has as its target Metabotropic glutamate receptor 8 (Rattus norvegicus) (UniProt P70579). Kind of test: mGluR8 Gi/Go-coupled signaling modulation – cell-based, rat, thallium flux, HTS, primary screen (AID 488969). To be noted: HEK293 rat mGluR8, GIRK (G protein-gated inwardly rectifying potassium channel) thallium flux, FluoZin2; at 10 µM; stronger effect = higher value; submaximal glutamate (EC20) added with thallium.
Chain of UniProt P70579 (P70579 whole entry, looked up): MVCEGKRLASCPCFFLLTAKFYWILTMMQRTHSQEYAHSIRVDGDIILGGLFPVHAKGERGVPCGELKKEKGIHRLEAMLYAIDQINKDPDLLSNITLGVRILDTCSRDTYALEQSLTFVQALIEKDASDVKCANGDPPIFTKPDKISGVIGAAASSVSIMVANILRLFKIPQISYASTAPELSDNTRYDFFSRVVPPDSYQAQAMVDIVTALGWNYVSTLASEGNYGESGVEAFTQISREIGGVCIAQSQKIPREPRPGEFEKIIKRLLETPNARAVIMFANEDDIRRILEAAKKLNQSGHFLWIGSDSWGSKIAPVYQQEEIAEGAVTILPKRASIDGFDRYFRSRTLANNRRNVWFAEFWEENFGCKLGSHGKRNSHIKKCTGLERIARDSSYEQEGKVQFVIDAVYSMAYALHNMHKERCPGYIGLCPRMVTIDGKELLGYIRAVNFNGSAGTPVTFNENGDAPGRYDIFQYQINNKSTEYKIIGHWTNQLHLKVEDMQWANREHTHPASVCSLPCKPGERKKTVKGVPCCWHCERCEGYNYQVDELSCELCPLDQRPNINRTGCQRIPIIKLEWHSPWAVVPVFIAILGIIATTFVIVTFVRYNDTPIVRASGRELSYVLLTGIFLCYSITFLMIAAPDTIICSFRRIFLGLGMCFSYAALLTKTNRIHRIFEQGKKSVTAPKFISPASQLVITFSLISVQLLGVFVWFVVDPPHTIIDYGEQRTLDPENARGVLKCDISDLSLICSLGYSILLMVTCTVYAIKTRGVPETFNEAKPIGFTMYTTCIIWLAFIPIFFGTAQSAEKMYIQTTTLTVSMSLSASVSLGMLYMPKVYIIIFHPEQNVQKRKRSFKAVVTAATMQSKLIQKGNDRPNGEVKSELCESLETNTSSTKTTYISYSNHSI
In turn, `CN(C)S(=O)(=O)N1CCCN(S(=O)(=O)N(C)C)CC1` showed a z-score of -0.47.
To `COc1ccc(C2c3c(ncn(Cc4ccco4)c3=N)Oc3ccc4ccccc4c32)cc1` (stereo unspecified) belongs -0.169; to `CC(Sc1nc2cc(Cl)ccc2s1)C(=O)Nc1cccc(S(=O)(=O)N2CCOCC2)c1` (stereo unspecified), -1.56.
To `CCOc1ccc2[nH]c(=O)c(CN(Cc3ccccc3OC)C(=O)c3ccccc3)cc2c1` belongs -0.571.
To `O=C(CSC1=NC(=O)C(c2ccccc2)C(=O)N1)Nc1cccc(Cl)c1` (stereo unspecified) belongs -0.477; to `Cc1ccc(C(c2nnnn2C(C)(C)C)N2CCC(C)CC2)cc1` (stereo unspecified), -0.301.
In the case of `COc1cc(Cl)cc(C#N)c1OCC(=O)O`, the z-score is 0.0117.
`Cc1nc2nc3c(cn2n1)C(=O)CCC3` came in with a z-score of 0.0584.
`Cc1cccc(NC(=O)CCCSc2nc3ccccc3[nH]2)c1` yielded a z-score of -0.764.
On to `CCOC(=O)c1[nH]cnc1C(=O)Nc1ccncc1`, for which the z-score turned out to be 0.161.
To `COc1ccc(N2C(=O)c3ccc(C(=O)OC(C)C)cc3C2=O)cc1` belongs -0.374; to `CCN(CC)c1ccc(/C=N/OCC(=O)Nc2cccc(C)c2)cc1`, 0.0156.
To `O=C(C1CCC(CNS(=O)(=O)c2cccc3cccnc23)CC1)N1CCc2ccccc21` (stereo unspecified) belongs -0.0229.
To `O=C1C2C3C=CC(CC3)C2C(=O)N1/N=C/c1ccc(O)c(O)c1` (stereo unspecified) belongs -0.0912.
Take `Cc1ccc(NC(=O)CCC(=O)NNC(=O)/C=C/C(=O)O)c(C)c1`: the z-score is -0.0638.
The value for `COc1cc(C(=O)NC(=S)Nc2ccc(NC(=O)c3ccco3)cc2)cc(OC)c1OC` was -0.379.
For the compound `Cc1ccc(NC2c3ncccc3C(=O)N2C2CCCCC2)cc1` (stereo unspecified), the z-score is -0.988.
To `Cc1ccc2c(C)nc(Nc3ncc4c(n3)CCCC4=O)nc2c1` belongs -0.118.
The value for `Cc1cc(C)c(C#N)c(SCc2ccccc2C(=O)O)n1` was 0.198.
In turn, `COc1ccc(OC)c(NS(=O)(=O)c2ccc(NC(C)=O)cc2)c1` registered a z-score of -0.311.
The value for `CCCOc1ccc2oc(=O)c3c(c2c1)CCCN3C(=O)CN1CCc2ccccc2C1` was 0.268.
To `O=C(/C=C\NCC(=O)c1ccccc1)c1ccccc1` belongs -0.0328.
The value for `CC[N+]1(CC)CC2=Cc3c(ccc4ccccc34)CC2C1` (stereo unspecified) was -0.386.
`COc1ccc(CNC(=O)CSc2nnc3c(Cl)cc(C(F)(F)F)cn23)cc1OC`: the z-score was -0.498.
The value for `C/C(=N/OCC(=O)Nc1ccccc1)c1cccs1` was -0.0392; that for `CCOC(=O)CN(C#N)c1nc(C)cc(C)n1` was 0.22.
In the case of `CCOCCCNC(=O)C(Cc1ccccc1)NC(=O)c1ccco1` (stereo unspecified), the z-score was -0.543.
To `CC1CCCC(C)N1/N=C/c1ccc(Cl)cc1` (stereo unspecified) belongs -0.0895.
The value for `C=CCN1C(=O)C(Cc2ccccc2)S/C1=N/N=C/c1cccs1` (stereo unspecified) was -0.302; that for `CCC1CCCCN1CCNC(=O)CNS(=O)(=O)c1ccc2nc(C)sc2c1` (stereo unspecified) was -0.511; that for `CC1CN(c2ccc([N+](=O)[O-])cc2C(=O)N2CCOCC2)CC(C)N1` (stereo unspecified) was -0.364.
The value for `Cc1cccc(C)c1Nc1nnc(SCC(=O)c2ccc3c(c2)NC(=O)CO3)s1` was -0.162.
The compound `Cc1cc(NC(=O)c2ccc(S(=O)(=O)N3CCCC3)cc2)nc2c1c(=O)oc1ccccc12` had a z-score of 0.442.
To `Cn1cc(CC(=O)NCCCN2CCCC2)c2ccccc21` belongs 0.206; to `NC(=O)NC(c1ccccc1)c1cccc2ccccc12` (stereo unspecified), -0.241.
To `CCCCOCCCNC(=O)N[C@@H](CC(C)C)C(=O)O` belongs 0.0102; to `CC(C)CSc1ncnc2c1oc1nc3c(cc12)COC(C)(C)C3`, 0.0119.
The value for `CC(=O)c1cccc(NC(=O)Nc2ccc3c(c2)N(C)C(=O)CS3)c1` was -0.749.
`CCN(C(=O)COC(=O)c1cc(-c2ccccc2)nc2c1c(C)nn2-c1ccc(C)cc1)C1CCS(=O)(=O)C1` (stereo unspecified) came in with a z-score of 0.887.
The value for `Cc1ccc(-c2nc(CCN3C(=O)c4ccccc4C3=O)cs2)cc1` was -0.242.
The value for `CCCC(=O)Nc1nnc(Sc2ccc(N(C)C)cc2)s1` was 0.952.
The value for `COc1ccc(C2C(C(=O)O)CC(=O)N2c2ccc(OC)cc2)cc1` (stereo unspecified) was -0.728.
The compound `COc1ccc(C2C(=O)N(CCc3ccccc3)CC(=O)N2C2CCCCC2)cc1` (stereo unspecified) returned a z-score of -0.422.
In turn, `CSc1ccccc1NC(=O)C1CC(c2ccccc2O)=NO1` (stereo unspecified) returned a z-score of -0.288.
To `Cn1c(=O)c2c(nc(SCCCC#N)n2Cc2ccccc2F)n(C)c1=O` belongs -0.419; to `CC(=O)Cc1nsc(NC(=O)c2c(-c3ccccc3Cl)noc2C)n1`, 0.444; to `O=C1CCCc2c1[nH]c1ccc(Cl)cc21`, -0.298.
Turning to `Cc1nnc(Nc2ccc3c(c2)ncn3C)c2ccccc12`, the z-score is -0.24.
To `Cc1ccn2c(C(=O)N/N=C\c3cccs3)c(C)nc2c1` belongs -0.0139; to `O=C(c1ccncc1)c1ccc(Br)cc1`, -0.0674.
`Cc1ccc(S(=O)(=O)N(CC(=O)N2CCN(c3ccc(F)cc3)CC2)C2CCCCC2)cc1` displayed a z-score of 0.14.
To `O=C(NCc1cccs1)c1nc2c(nnn2Cc2ccc(F)cc2)c(=O)[nH]1` belongs -1.
`CC(C)N1C(=O)CC2(CC[N+](C)(CCOC(=O)C(c3ccccc3)c3ccccc3)CC2)C1=O` (stereo unspecified) returned a z-score of 0.1.
`CCOC(=O)c1sc(NC(=O)c2ccc(S(=O)(=O)N3CCOCC3)cc2)nc1-c1ccccc1`: the z-score is -0.49.
As to `COc1cc(OC)c(C(=O)OC(C)C(=O)Nc2cc(C(F)(F)F)ccc2Cl)cc1OC` (stereo unspecified), the z-score is -0.296.
Regarding `O=C(O)CCC(=O)NNC(=O)c1ccc(Br)cc1`, the z-score was -0.149.
Turning to `COc1cc(OC)cc(OCC(O)Cn2ccnc2C)c1` (stereo unspecified), the z-score came to 0.18.
In the case of `CN(C)c1nc(OCCNC(=O)COc2ccccc2Cl)nc(N(C)C)n1`, the z-score was -0.751.
To `COc1ccc(CN(C)C(C)C(=O)Nc2ccc([N+](=O)[O-])cc2Cl)cc1OC` (stereo unspecified) belongs -0.15.
The value for `O=C(O)CN1C(=O)CNC1=O` was 0.44.
For the compound `C/C(=N\NC(=O)c1ccn[nH]1)c1cn(C)nc1C`, the z-score was -0.0601.
To `Cc1ccc(C(=O)c2cnc3cc4c(cc3c2S(=O)(=O)c2ccccc2)OCCO4)cc1` belongs -0.361; to `O=C(Nc1ccccc1)c1ccc(S(=O)(=O)N2CCOCC2)cc1`, 0.477; to `COc1ccc(OC)c(C2CC(c3c(-c4ccccc4)c4cc(Cl)ccc4[nH]c3=O)=NN2S(C)(=O)=O)c1` (stereo unspecified), 0.273.
The value for `COc1ccc(CCNC(=O)CSc2nc(O)c(CCC(C)C)c(=O)[nH]2)cc1OC` was -0.227; that for `O=C1CCC(C(=O)NCCCn2ccnc2)N1` (stereo unspecified) was -0.292; that for `Cc1cc(N2CCCC2=O)cc(C)c1S(N)(=O)=O` was -0.00592.
The value for `COC(=O)C(/C=N/OCc1ccc([N+](=O)[O-])cc1)NC(=O)c1cccc(Cl)c1` (stereo unspecified) was 0.162; that for `CN1CCN(c2ccc([N+](=O)[O-])c(-n3nc(-c4ccccc4)c4ccccc4c3=O)c2)CC1` was -0.953.
`Cn1nc(C(F)(F)F)c(/C=N/OC(=O)c2ccccc2Cl)c1SCc1ccccc1Cl` showed a z-score of -0.323.
Take `COc1cc(C2SCC(=O)N2CCCN(C)C)cc(OC)c1OC` (stereo unspecified): the z-score is -0.0223.
Turning to `CCCn1c(SCC(=O)NC2CCCC(C)C2C)n[nH]c1=O` (stereo unspecified), the z-score amounted to 0.27.
In turn, `O=C(Nc1ccc(Cl)cc1)Nc1nnc(CSCc2ccccc2)s1` displayed a z-score of -0.183.
`Cc1cc(C(F)(F)F)c2c(n1)sc1c(O)cc(=O)[nH]c12` displayed a z-score of -1.1.
In turn, `CCCCNC(=O)c1onc(CSc2cccc(C)c2)c1C(=O)O` registered a z-score of -0.302.
The value for `Cn1ncc(Br)c1C(=O)NCc1cccs1` was -0.458; that for `COc1ccc(C(=O)Cn2c3ccccc3n3nc(CCC(=O)O)c(=O)nc23)cc1OC` was 0.713; that for `CCC1=NC(c2ccc(OC)cc2)N(O)C1(C)C` (stereo unspecified) was -0.045.
The value for `CC(=O)c1cccc(Nc2nc(=O)c3cccnc3s2)c1` was 0.223; that for `COC(=O)c1ccc(Cl)c(-c2ccc(/C=N/NC(=O)Nc3ccccc3)o2)c1` was 0.0576.
The value for `CCOc1ccc(-c2nnc(N3CCCCC3)c3ccccc23)cc1` was -1.46; that for `Cc1cccc(C(OC(=O)c2ccco2)C(=O)NCc2ccccc2)n1` (stereo unspecified) was -0.419; that for `Cc1ccccc1NC(c1cccc(Cl)c1)c1nnnn1C1CCCCC1` (stereo unspecified) was -0.0701.
With `CCOC(=O)c1ccc(NC(=O)CSc2nnc(C3CC3)n2CC)cc1`, the z-score was -0.184.
Compound `CC(NC(=O)c1ccc(CS(=O)(=O)c2ccc(Cl)cc2)o1)c1ccc2c(c1)OCCO2` (stereo unspecified) displayed a z-score of -0.695.
Turning to `N=C1S/C(=C\c2ccc(-c3cccc(Cl)c3)o2)C(=O)N1c1nccs1`, the z-score was 0.814.
In turn, `O=C(O)C1CC=CCC1C(=O)NCCc1cccc(Cl)c1` (stereo unspecified) yielded a z-score of -0.133.
The value for `CCOc1ccccc1C(=O)Nc1ccccc1C(N)=O` was -0.0706.
In turn, `Cc1ccc(C)c(NC(=S)NNC(=O)c2ccco2)c1` displayed a z-score of -0.0706.
For `Cc1cc(C)nc(SCC(=O)OCN2C(=O)c3ccccc3C2=O)n1`, the z-score is -0.19.
To `COc1cccc(NC(=O)c2cccs2)c1` belongs 0.181; to `NC(=O)C(F)(F)C12OC3C4C5CC(C6C5C3C61)C42` (stereo unspecified), -0.285; to `CCOC(=O)Nc1cccc(OCC(=O)Nc2ccc(OC)cc2OC)c1`, -0.383.
Consider `Cc1n[nH]c(C)c1-c1nc2ccccc2[nH]1`, for which the z-score is -1.02.
To `CC(C)NC(=O)COC(=O)c1ccc(Oc2ccccc2)cc1` belongs -0.196.
The value for `O=C(COC(=O)Cc1ccc(Cl)cc1Cl)NCCC1=CCCCC1` was -1.17; that for `COc1ccc(/C=N/NC(=O)COc2ccccc2-c2ccccc2)cc1` was 0.0734; that for `Cc1nc2ccccc2cc1O` was -0.609.
To `CCOC(=O)C(/C=C(\C#N)C(=O)OCC)=C(/N)N1CCN(c2ccc(Cl)cc2)CC1` belongs -0.506; to `CCC(=O)n1nc(-c2ccco2)nc1N`, 0.135; to `O=C(CN1CCCC1)N1c2ccccc2Sc2ccc(C(F)(F)F)cc21`, 0.663.
For the compound `O=Cc1ccc(Sc2nnc(-c3ccccc3)o2)c([N+](=O)[O-])c1`, the z-score was -0.48.
`Cn1c(=O)n(C)c2cc(S(=O)(=O)N3CCOCC3)ccc21` gave a z-score of -0.185.
To `O=C(NC1CC1)c1cc(-c2ccccn2)nc2ccccc12` belongs -0.16; to `CCC(Sc1nc2ccccc2c(=O)n1CC1CCCO1)C(=O)NCc1cccnc1` (stereo unspecified), 0.0564; to `COc1c(N2CCN(C(=S)Nc3ccc(F)cc3)C(C)C2)c(F)cc2c(=O)c(C(=O)O)cn(C3CC3)c12` (stereo unspecified), -0.443.
The value for `Cc1cc(N2CCC(C(=O)N3CCN(c4cccc(C)c4C)CC3)CC2)n2ncnc2n1` was -0.316; that for `COc1ccccc1C1NC(c2ccccc2OC)C(C)C(=O)C1C` (stereo unspecified) was -0.156.
`FC(F)Oc1ccc(NC(=S)NCc2ccccc2)cc1` registered a z-score of 1.51.
The value for `COc1cc(NC(=O)CN2C(=O)C(c3ccccc3)=NC23CCCCCC3)cc(OC)c1` was 0.52.
As for `COc1ccc(-c2nc3scc(-c4ccc(OC)c(OC)c4)c3c(=O)o2)cc1`, the z-score is -0.103.
